The full ranking holds about 4,100 sequences; the median of “arbitrary fluorescence units” is about 780, and the highest 2% start at about 22,000. Some of the results follow.
These sequences were tested against T1, ETS1 (UniProt P14921) (assay: ETS1 binding intensity (PBM fluorescence), ETS1 alone (arbitrary fluorescence units); higher = stronger binding). Details: ETS1 concentration 1 nM; RUNX1 concentration 0 nM.
T1 sequence: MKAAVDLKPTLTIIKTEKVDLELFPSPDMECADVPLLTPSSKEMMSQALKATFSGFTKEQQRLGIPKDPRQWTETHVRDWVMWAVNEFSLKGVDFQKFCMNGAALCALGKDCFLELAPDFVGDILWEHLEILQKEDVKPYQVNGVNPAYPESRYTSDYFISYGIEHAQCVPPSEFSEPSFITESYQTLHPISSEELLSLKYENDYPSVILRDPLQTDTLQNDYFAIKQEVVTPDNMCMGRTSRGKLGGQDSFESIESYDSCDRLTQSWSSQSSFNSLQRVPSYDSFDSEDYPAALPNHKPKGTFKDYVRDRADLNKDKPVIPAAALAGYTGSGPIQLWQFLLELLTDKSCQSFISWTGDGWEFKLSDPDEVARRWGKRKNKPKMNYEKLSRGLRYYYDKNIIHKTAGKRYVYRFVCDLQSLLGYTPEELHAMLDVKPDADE
Summary of the method: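 Full-length recombinant human ETS1 (1 nM, no RUNX1) was incubated, per standard PBM protocols, on double-stranded Agilent 4 × 180k arrays of 36-bp genomic probes whose RUNX1 partner site was mutated. Bound ETS1 was detected with anti-ETS1 antibody (Cell Signaling Technology 14069) and Alexa488-conjugated secondary antibody, then scanned on a GenePix 4400A. Binding level is spot fluorescence intensity, summarised over replicate spots (four printed per sequence) and not normalised.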
GCCCGAGGTTCCGGTCCATGGACAGCGGGCGCCGAG showed an ETS1 binding intensity of 7390. Work on CGGGCGCCTGCAGGCGGTGCTGCCGGATGCCCCGCC yielded an ETS1 binding intensity of 455. AAGGAACTGTCGTAAGAGAAGGAAGTGCTATCCACT showed an ETS1 binding intensity of 528. GAGCCCGCGGATGTCAGGTGTGCTCACATCTAAACA was tested, and the ETS1 binding intensity was 431. CTTGGGGTCCCCTCGGGTGGTGGCAGGATGTAGGTA showed an ETS1 binding intensity of 480. For TTCAGCCTCCCGCCTCAAGCTCCCTTCCGCCGCTCC, the ETS1 binding intensity was 384. CCCCGGCTGAGGGGCTCTGGGAAGCGGATGCTAGCC showed an ETS1 binding intensity of 421. GCCCTTCCTCCCGGCGCGCAGGGTGAGGTCCCCGAG gave an ETS1 binding intensity of 2220. With AAACTACTTTCCTTCCTACCAAAACTACACTAAAGA the ETS1 binding intensity was 824. With GAGAACTTCCGGTGCGCTCCCCGGGACTGCAGTCCC the ETS1 binding intensity was 46000. GCAGTCAGGCCCACGTTCCTCTTACTTCCCGCCATT showed an ETS1 binding intensity of 440. With TGCCTTCTGGGAAGTCGGGCGCTCTGCAGCTGTGAC the ETS1 binding intensity was 347. In the case of TACGCACACGCTTCGGGATCCTTCCGCTCCGGGTTA, the ETS1 binding intensity is reported as 644. With TTCAGTGGGTGCTTACTCGGCATCCTGTTGGGCTTC the ETS1 binding intensity was 1130. In the case of ACGGAGCCGGGGAAACGCGCCGCCGCCCAGAACGCC, the ETS1 binding intensity is reported as 364. TCTTGCTGGCCGCCCCTCCCACTTCCCACTGGGCTG showed an ETS1 binding intensity of 362. For GTTCGAAAAGCGCCCGGGCGCCTGTGGGAAATGTAG, the ETS1 binding intensity was 395. In the case of TTGGGGTTGAGTTCCCTAGCTGACACTTCCTATATT, the ETS1 binding intensity is reported as 495. GGGGAGGGACTGCAGGGAGGCGGAAGTCCTTGTTTT gave an ETS1 binding intensity of 1930. Work on TGCAAGAGGAAGCTGGGGTTTGGGGTTCATGTTTTG yielded an ETS1 binding intensity of 699. AGCTAGGACAGGATGTGAAAACTACACTGACAAAGT was tested, and the ETS1 binding intensity was 4610. For TGCTTGGGGTCCCTCGGCCCGTTTTCCTGCTAGTGG, the ETS1 binding intensity was 311. In the case of AGCGCCCGCTGCCGCTGCCGTGGAAGGAAACGCTGC, the ETS1 binding intensity is reported as 384. With GCAGAAGAGGAAATGGTTTGCCTGTGCGCTGGGGGA the ETS1 binding intensity was 1920. Work on ACCATATCCTGAGAATGAACCATCTGGTGGATGCAC yielded an ETS1 binding intensity of 3530. With ACCTTCCTTCCTGCCTCCCTTGGGGCTCCAGTCCAC the ETS1 binding intensity was 6060. GGGTTGCCAGGATGACTCCGCTGTACCCCGCCCCGC gave an ETS1 binding intensity of 364. For CCTGTCCCCCATCCTGGGGTCCCTCAGCCTCGCTCT, the ETS1 binding intensity was 500. With GACAAGATTGCAGGTGGGAACCCCATCCGGTTTGTT the ETS1 binding intensity was 1580. CGATCCATTCGCTGTCTGCACCCGGAAAGTACACCT was tested, and the ETS1 binding intensity was 421. For CCTTGCCTGCAGGCTTTCTGGTCTCCGGATGGAGGC, the ETS1 binding intensity was 319. For ACTGATGCGCTCACAGACAGCAAAGGCAGGAAACAG, the ETS1 binding intensity was 476. GGACACATCTGGTGTTCTGCAGGATGCAAAAGACCT was tested, and the ETS1 binding intensity was 366. GGCAACAACCCCAAATCAGTGCGCCGGCTTCCTTAT was tested, and the ETS1 binding intensity was 354. GGGAGAGGCCGTGGGAGCGGAAGGAAAATCAGAGAA gave an ETS1 binding intensity of 593. In the case of TCAGGAAACCCAGAAACCCTAATTGTCCCCAGAGAA, the ETS1 binding intensity is reported as 499. TGAGCCTTGGAAGGAAATGATTCACCAAAATACTGT showed an ETS1 binding intensity of 540. With TGGGCTTCCTCTCCATTATCCTAATTAGGTGGCTTG the ETS1 binding intensity was 2500. With GGGCCCTTCCTGTGGCGCCTGCCGAGCTGTCGTTGG the ETS1 binding intensity was 4650. AGGCAACTCCCATAAACCCCCGGACGCGGAACACTG showed an ETS1 binding intensity of 411. For CTGTTAGTGCTTTGAATCTCACATCCTGTAATGGTT, the ETS1 binding intensity was 2380. With TCACTCCTCTTCCTTCCTGCCACCCTCAGGGTCAGC the ETS1 binding intensity was 3250. Sequence CCGCTTCCGGCCTTCGCCCGGCTTAGCCGCGTCGCA has an ETS1 binding intensity of 34700. Sequence CTAACTGAGGGTGTTGTTACACAGGATGATTCTTAG has an ETS1 binding intensity of 399. ACTGTAGTTTATGAAAGAGCTTTTAGGAAACATTTA gave an ETS1 binding intensity of 376. For GACGCAGGATGAGCTGGAGGTGTAGAATGGGGTGCT, the ETS1 binding intensity was 435. In the case of CTCACCTCGGGCTAGGGAGCGTGGGATTCCGGACTG, the ETS1 binding intensity is reported as 330. In the case of ATGAAACCAAGACCAAAAAGGAAGGAAACCAGAAAG, the ETS1 binding intensity is reported as 451. CTCGCCCCATTTCCCGTAAATATCAGCCACGGACCA was tested, and the ETS1 binding intensity was 3990. CCCTCCGGCCCTCAGCCCTGCCCAAACGGAAGTGCT was tested, and the ETS1 binding intensity was 787. TGAAAGCCAGGGAAGTGGCTCCCAGAATAAGCCAAG was tested, and the ETS1 binding intensity was 487. With GCCGCGCTTTCCGGAGCTGGTCGCCGAAGCGAACAA the ETS1 binding intensity was 2170. For AGCTGTAGCTTCAGTGTTTCTGATTTCCTCTTGTTG, the ETS1 binding intensity was 420. In the case of CTGGTAGAAAAGGAAGCAGGTTGGGGTGAGCATTTA, the ETS1 binding intensity is reported as 552. For TATTTCCTGTGCACAGAAGCAGCTGGGCCGAAGAGT, the ETS1 binding intensity was 34400. CGAAATCACATGAAACCAGAGTAGCTTCCGTACAGG was tested, and the ETS1 binding intensity was 524. In the case of CCAGCACGTGGGCTCTGAACCGGAAGCAACAGGCTC, the ETS1 binding intensity is reported as 3250. GACATATCCTGCATTCTCAGAAAAATCACAGGCTAG gave an ETS1 binding intensity of 8110. With GCAAACGCACTCCGAAAGCTCTGGGCCGGAAGAGTC the ETS1 binding intensity was 413. CCTCCTCTTCCTCCCCACTCTGCACATACGGCTGGG gave an ETS1 binding intensity of 1030. In the case of CCCCAGCGGATTTCCAGCGTACGCACAAGTTCCGCC, the ETS1 binding intensity is reported as 578. CGGGTCCTGAGGGCGCTGGCGGAAAGAGGCGAGGCG showed an ETS1 binding intensity of 332.

From the supplement of paper PMC10681739
